In the supplement of paper PMC11417369:
± gives the standard deviation of the averaged measurements. The list shows a part of the results.

System: PfAP2-G AP2 domain (GST-tagged)
Experiment: gcPBM binding intensity (ln(normalized median fluorescence intensity)); higher = stronger DNA binding
Summary of the method: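 Binding intensity is the highest Masliner-normalised natural-log median intensity over replicate spots in either probe orientation. To obtain it, GST-tagged P. falciparum DNA-binding domains made in E. coli were incubated for 1 h on an Agilent 4 × 180k array of primer-extended double-stranded 36-bp intergenic genomic probes plus negative controls. Detection used Alexa488 anti-GST antibody with scanning at 488 nm.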

Sequence	gcPBM binding intensity (ln)
AAGAAGCATAAATGTACACACATATTTATATATTAA [CACACA_site1332]	11.2 ± 0.77
ATATTTATAATTTTTTGTACACATTTTTTAAAGATA [XGTACX_site1784]	11.4 ± 0.9
CTTTATATATAGTGTACACATTAAACAAATCTCAAT [CACACA_site5845]	11.6 ± 1
TTACCAAAAACCTCAAGTACAAAAAATCCCTAATAT [XGTACX_site2313]	11 ± 0.62
TTTTTTTTTTTTTTTGCACACACATTGAATTATTAT [CACACA_site198]	9.97 ± 0.57
AAATGGAAAAGGTGTACACAAAAAAAAGGGAAAAGC [CACACA_site5331]	11.7 ± 1.2
ATATATATATATATATGTACTAAATATTCATCCTTA [XGTACX_site6039]	11 ± 0.65
AAGTTTAAGAAATAATTCATATTTACTTCCATCCTC [GTGCAC_negctrl_site494]	9.62 ± 0.34
ATAGTATACAGACACACACACACACGGATATAAATA [CACACA_site6914]	10.3 ± 0.31
AATGGGTTAGCACATACACACCAATATATTATATAT [CACACA_site9011]	10.04 ± 0.071
ATTTATGATATGTAAACATGCATAAAAATTTCAAAA [TGCATGCA_site858]	9.685 ± 0.007
TATAAACTTAATTTGAGTACTTAATAATAATTTTGT [XGTACX_site3730]	11.4 ± 0.67
TACCACATCGGTAAATGTACTTATAAAAAAAAAAAA [XGTACX_site3364]	11.2 ± 1.1
CATCCACATATATGTACACACATATATATATATATA [CACACA_site2964]	11.4 ± 0.81
CAATCATTTTATTGTTGTACAGTAATTATGAATTCA [XGTACX_site7508]	11.4 ± 0.85
TATATATGTATATATGGTACAGAATATTCTACATTA [XGTACX_site5077]	10.7 ± 0.49
TAAGAGTAGTTATATACACACATGTATATTATAGTT [CACACA_site6815]	9.81 ± 0.071
TTGGTACCTATAGATACACACATATATACATATATA [CACACA_site3402]	10.8 ± 0.61
TTATAAATTAGAGGTACACACAAAAAAAAAAAGAAA [CACACA_site6740]	11.4 ± 0.86

Sequence	gcPBM binding intensity (ln)
CACGACATTAACAATACATGCAGAAAAACAAAAAAT [TGCATGCA_site689]	10.085 ± 0.007
ATTTTTAATATTATTACACACACTAAAAAAAAAAAA [CACACA_site1067]	10.1 ± 0.4
TATATATATATATTATGTACGTATCAGTTTGTATGT [XGTACX_site695]	11.4 ± 0.87
TTTTTTTCTTTTTCAAAAAAAAAAAAAAAAAAAATA [GTGCAC_negctrl_site329]	9.73 ± 0.47
GCTAGTTTTTTTTGGCGTACAGTACCGGTTTACTTT [XGTACX_site2606]	11.6 ± 1
ACCCATTTTAATTTAGTGCACATTTTACCTTTATAC	10.5 ± 0.26
TTCTGCAGCAATGTTTTTTTTAAATATTTATATGGT [CACACA_negctrl_site1815]	9.875 ± 0.021
AAAAAAATAACAAAGTGTACTTTTATATTTTACATA [XGTACX_site8954]	11.3 ± 0.93
TTCCTCTTAATATGTGCACACTAAATTATAACATAA [CACACA_site3260]	10.6 ± 0.34
CATACCATACATAAAACACACAAAATTTACATAATA [CACACA_site3100]	9.99 ± 0.12
TATAGTTTTATTATTTATGTGTTAAAATTATACAAG [TGCATGCA_negctrl_site246]	9.79 ± 0.15
TTAGCTCAATTTTTGGGTACACACAAATGTATAATA [XGTACX_site5003]	11.4 ± 0.93
GAAAAATGTAAATACATATATGTACACAAATATATA [GTGCAC_negctrl_site557]	11.6 ± 0.96
CAATTTGGTGTACAGGTGCACATGCCTCACGATAAA [GTGCAC_site9650]	11.6 ± 0.92
AAAAAAAAAAAAAAATGTACATATTAAGTATAATTA [XGTACX_site4616]	11 ± 0.65
ATTCTAAATTAAAATACACACATATATACATAATAT [CACACA_site2792]	9.985 ± 0.021
AATATTTATAAATTTACACACACACGGGTGAACATA [CACACA_site6979]	10.3 ± 0.13
TTTAATTCCATAAGTAAACACACAAATGCCAAAATT [CACACA_site9049]	10.25 ± 0.071
TATGTAAAAACAGGCACACATATATCATATATATAT [CACACA_site619]	10.1 ± 0.32

Sequence	gcPBM binding intensity (ln)
AAAAAAAAAAAAAAAAGTACATAATATAAAATCTAA [XGTACX_site6019]	11.6 ± 0.95
TATGTATGCCTGTTTTGTACTTAAGAAAATGTTGCT [XGTACX_site8443]	11 ± 0.57
TATAAACATAAATATACACACAAACATCTATGTATT [CACACA_site4804]	9.79 ± 0.042
TATAAATATATATGTACACACATATACATGTTGAAT [CACACA_site3118]	11.3 ± 0.79
TAAAACATCAAGGGGTGTACAAAAAAGATGAACAGG [XGTACX_site6929]	11.2 ± 0.64
AAAAAAAAAAAAACTACACACATAAAATATATTGTG [CACACA_site805]	10.07 ± 0.071
ATTGGGTTCATCAGCACACACAACATCATGTAATAA [CACACA_site5093]	10.3 ± 0.4
AGAGCATAATAAAACACACACATACATACATATATA [CACACA_site935]	9.94 ± 0.028
AGGCACTTATAATAATGTACATAAATAAAAAGAAAA [XGTACX_site6037]	11.1 ± 0.54
AAAAAAAAATATCACACACACATAAATATAAACCAA [CACACA_site2279]	10.1 ± 0.11
TTTTCAATATATATTTGTACTTTATTTTATGATATT [GTGCAC_negctrl_site732]	11.2 ± 0.75
GCATTCATTTTTAATACACACAAAAAAAAAATAAAA [CACACA_site2408]	10.2 ± 0.42
ACTATTAACAGTGTAGTGCAAAAAGGTTAATTATTA	10.2 ± 0.15
TAAATGTCCTTATTTGCACACACACCGATAAGAAAT [CACACA_site5723]	11 ± 0.78
TCTATGTAGTTTTTATGTACTAAATAAATAAATAAA [XGTACX_site2599]	11 ± 0.8
TAGAAGCAGAAACACACACACATACATACACATACA [CACACA_site1467]	10.1 ± 0.13
TACATATATATTTGTTCACACACACCCAAAAAAAAA [CACACA_site8788]	10.4 ± 0.31
TATTTTACACATTTACGTACATAAATATATATATAT [XGTACX_site8788]	11.6 ± 0.95
TACGCACAAAAATATACACACACACCGATATATTTA [CACACA_site9213]	10.1 ± 0.23
